Test results as given in PubChem BioAssay AID1745853 (National Center for Advancing Translational Sciences (NCATS), 2022).
The other results are listed elsewhere or left out. The main result of the screen is listed elsewhere. These columns were measured beside it and carry no call.

Assays:
Test in all cases: Primary Screen for Target Class Profiling of Small Molecule Inhibitors of Methyltransferases
[1] = biological target: Glycine N-methyltransferase (Homo sapiens) (UniProt Q14749); conditions: purified enzyme, MTase-Glo SAH luminescence; measured here: GNMT inhibition; at 40 µM; stronger effect = lower value
Summary of the method: (§1)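 Each enzyme was assayed with SAM and its substrate. SAH formation detected by MTase-Glo luminescence; single-point 40 uM screen[…].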

[2] = biological target: Guanidinoacetate N-methyltransferase (Homo sapiens) (UniProt Q14353); conditions: purified enzyme, MTase-Glo SAH luminescence; measured here: GAMT inhibition; at 40 µM; stronger effect = lower value
Summary of the method: as §1

[3] = biological target: Histamine N-methyltransferase (Homo sapiens) (UniProt P50135); conditions: purified enzyme, MTase-Glo SAH luminescence; measured here: HNMT inhibition; at 40 µM; stronger effect = lower value
Summary of the method: as §1

[4] = biological target: Nicotinamide N-methyltransferase (Homo sapiens) (UniProt P40261); conditions: purified enzyme, MTase-Glo SAH luminescence; measured here: NNMT inhibition; at 40 µM; stronger effect = lower value
Summary of the method: as §1

[5] = biological target: Phenylethanolamine N-methyltransferase (Homo sapiens) (UniProt P11086); conditions: purified enzyme, MTase-Glo SAH luminescence; measured here: PNMT inhibition; at 40 µM; stronger effect = lower value
Summary of the method: as §1
% is set by controls: 0 for no effect and ±100 for the full control effect.

Compound | activity change, negative = inhibition [1] | activity change, negative = inhibition [2] | activity change, negative = inhibition [3] | activity change, negative = inhibition [4] | activity change, negative = inhibition [5]
COC[C@@H]1CN(Cc2cn[nH]c2-c2ccccc2)C[C@H]1c1nc(C)no1 | -9.76% | -2.46% | 1.33% | -10.1% | -1.85%
CC(=O)OC1(C)CC(O)C2(O)C=COC(OC3OC(CO)C(O)C(O)C3O)C12 (configuration not stated) | 0% | 9.48% | 7.39% | -1.81% | 7.97%
Cc1ncc([N+](=O)[O-])n1C[C@H](O)CN1CCOCC1 | 5.65% | 8.43% | 2.42% | -12.4% | -3.07%
Cc1cccc2c(C(=O)Nc3ccc4c(c3)C(=O)N(C)C3=NCCN34)cc(-c3ccccc3)nc12 | 2.22% | 0% | 0.947% | 2.26% | 2.45%
C[C@H]1CCN2C[C@]34C[C@@]5(C(=O)Nc6c5ccc5c6OC=CC(C)(C)O5)C(C)(C)C3C[C@]12C(=O)N4C (some centres not stated) | 0% | 6.14% | 10% | -21.1% | 0.088%
COc1cccc(C(=O)N2CCCC(COc3ccccc3C(=O)N3CCOCC3)C2)c1 (configuration not stated) | -5.89% | -4.42% | -4.88% | -9.04% | 11%
CC(C)(C)c1cc(C[C@@H]2C[C@H](NS(C)(=O)=O)C2(C)C)no1 | -3% | -2.15% | -1.63% | -6.66% | -0.865%
CCCC1c2cccn2CCN1C(=O)Nc1cc(Cl)c(OC)cc1OC (configuration not stated) | 0.428% | 0.665% | -32.8% | -0.113% | 2.9%
O=C(O)c1cc2cccc([N+](=O)[O-])c2[nH]1 | -5.61% | -4.29% | 1.65% | -15.3% | -2.07%
CCCCCOC(=O)Nc1nc(=O)n(C2O[C@H](C)[C@@H](O)[C@H]2O)cc1F (some centres not stated) | 5.88% | – | 11.4% | – | –
CCCN1C(=O)c2c(C(=O)Nc3ccccc3Cl)ncn2CC1(C)C(=O)NCc1ccc(C)cc1 (configuration not stated) | -12.4% | 1.37% | -5.02% | -7.56% | -4.29%
Cc1ccc(C(N)=O)cc1Nc1nccc(-c2cn(C(C)C)c3cnccc23)n1 | -81.1% | -43.2% | -81.8% | -72.4% | -67.5%
CC1CCCC(NC(=O)Cn2c(=O)oc3cc(S(=O)(=O)NCc4ccccc4)ccc32)C1C (configuration not stated) | -4.42% | -0.677% | -8.33% | -3.69% | -10.8%
CCc1ccccc1N1C(=O)c2c(C(=O)OC)ncn2CC1(C)C(=O)NCc1ccccc1 (configuration not stated) | -7.17% | 0.186% | -4.51% | -2.84% | -4.12%
CCN1CCN(S(=O)(=O)c2cc(-c3nnc(-c4ccccc4)o3)ccc2OC)CC1 | 1.63% | 3.85% | 2.41% | 0.352% | 1.72%
Cc1ccc(C)c(Cn2nc3n(CC(C)C)c(=O)c4ccc(C(=O)NC(C)C)cc4n3c2=O)c1 | 4.16% | 0% | 4.57% | 1.04% | 3.37%
Cc1nn(C(=O)CCC(=O)N2CCC(Cc3nncn3CC3CC3)CC2)c2ccccc12 | -7.08% | -4.37% | -3.55% | -76.2% | -5.71%
Cc1cc(C)cc(N2C(=O)c3cc4occc4n3CC2(C)C(=O)NC2CCCCC2)c1 (configuration not stated) | 2.96% | 6.85% | 0.819% | 8.44% | 1.85%
O=C(Nc1ccc(F)c(Cl)c1)c1cnc(-c2ccccc2)nc1-c1ccncc1 | -2.98% | 0.393% | 0.949% | -5.39% | 11.8%
O=C(NCc1cccc(O)c1)Nc1nc(-c2ccncc2)cs1 | -21.8% | -7.25% | -11.8% | -28.3% | -17.5%
CCC1(C(=O)NCCc2ccccc2)CCCCC(=O)N1 (configuration not stated) | -0.521% | -1.12% | -0.053% | -6.22% | -5.92%
C=C[C@@](C)(CCC=C(C)C)O[C@@H]1O[C@H](CO[C@@H]2OC[C@H](O)[C@H](O)[C@H]2O)[C@@H](O)[C@H](O)[C@H]1O | 3.1% | 3.44% | 4.08% | -8.54% | 5.31%
C=CCCOC(=O)N1C[C@@H](CO)[C@@H]2Oc3ccc(Cl)cc3[C@@H]21 | -4.72% | -2.36% | -2.26% | -12.4% | -1.02%
COc1cc(C(=O)NC2CCN(C)CC2)ccc1Nc1ncc2c(n1)N(C1CCCC1)CC(F)(F)C(=O)N2C | -29.9% | -28.2% | -50.5% | -71.1% | -58.1%
O=C(C1CCCC1)N1CCC(Oc2cccnc2)C1 (configuration not stated) | -1.84% | -3.45% | -1.84% | -19.6% | -0.854%
COC(=O)CCc1ccc(OCC(O)CNC(C)C)cc1 (configuration not stated) | 0.598% | -10.3% | -4.88% | -15.7% | -10.1%
CCOC(=O)c1oc2cc3sc(N4CCCCC4)nc3cc2c1C | -5.69% | 0.592% | 4% | 2.88% | -8.21%
Cc1cccc(C2c3cccn3-c3sc4c(c3CN2C(=O)Nc2ccc(F)cc2)CCCC4)c1 (configuration not stated) | -0.422% | 0% | -0.252% | -1.32% | 1.49%
COC(=O)c1cc2n(n1)CC(C)(C(=O)NC1CCCCC1)N(c1cc(Cl)ccc1C)C2=O (configuration not stated) | 1.59% | 0.863% | -12.7% | 1.39% | 0.693%
O=C1CN(Cc2ccc(Cl)cc2)S(=O)(=O)c2ccccc2N1Cc1ccccc1 | 4.9% | 0% | 2.54% | -0.953% | -0.191%
